Measurements taken from the supplement of paper PMC11880418.
Counter-ions that a name gives are not always drawn. This is one part of the list. The data scatter; read single values as rough.

How the values were obtained:
Assay in all cases: ALDHbr (CSC) cell proportion score relative to DMSO vehicle (ratio to DMSO); breast (SUM159) / gastric (MKN45) / pancreatic (PANC1) / colon cancer lines; ALDHbr cells have high ALDH activity and are rich in cancer stem cells (CSC); higher = more CSC (ALDHbr) cells remaining
Conditions in all cases: 10 µM; 72 h
MKN45 = system: MKN45
PANC1 = system: PANC1
SUM159 = system: SUM159
T84 = system: T84
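Also: High-content imaging of ALDEFLUOR-stained cells with Hoechst-labelled nuclei in 384-well plates, triplicate wells, scored as Z-score against 0.1% DMSO vehicle, negative meaning fewer ALDHbr cells.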

## CO/N=C(\C(=O)N[C@@H]1C(=O)N2C(C(=O)O)=C(C[N+]3(C)CCCC3)CS[C@H]12)c1csc(N)n1 [Cefepime hydrochloride]
MKN45
  ALDHbr: 0.985
PANC1
  ALDHbr: 0.872
SUM159
  ALDHbr: 0.925
T84
  ALDHbr: 0.995

## COc1ccc(-c2cc(=O)c3c(O)cc(O[C@@H]4O[C@H](CO[C@@H]5O[C@@H](C)[C@H](O)[C@@H](O)[C@H]5O)[C@@H](O)[C@H](O)[C@H]4O)cc3o2)cc1O [Diosmin]
MKN45
  ALDHbr: 1.1
PANC1
  ALDHbr: 1.09
SUM159
  ALDHbr: 0.978
T84
  ALDHbr: 0.905

## CCOC(=O)C1=C(C)NC(C)=C(C(=O)OC)C1c1cccc(Cl)c1Cl (configuration not stated) [Felodipine]
MKN45
  ALDHbr: 1.25
PANC1
  ALDHbr: 0.78
SUM159
  ALDHbr: 1.72
T84
  ALDHbr: 0.975

## Cc1ccc(/C(=C\CN2CCCC2)c2ccccn2)cc1 [Triprolidine hydrochloride]
MKN45
  ALDHbr: 1.15
PANC1
  ALDHbr: 0.833
SUM159
  ALDHbr: 1.02
T84
  ALDHbr: 0.914

## CC(C)(Sc1cc(C(C)(C)C)c(O)c(C(C)(C)C)c1)Sc1cc(C(C)(C)C)c(O)c(C(C)(C)C)c1 [Probucol]
MKN45
  ALDHbr: 1.12
PANC1
  ALDHbr: 1.1
SUM159
  ALDHbr: 1.18
T84
  ALDHbr: 1.04

## C[N+]1(CCCCC[N+]2(C)CCCC2)CCCC1 [Pentolinium bitartrate]
MKN45
  ALDHbr: 1.01
PANC1
  ALDHbr: 0.903
SUM159
  ALDHbr: 0.893
T84
  ALDHbr: 1

## O=C(O)c1cccnc1Nc1cccc(C(F)(F)F)c1 [Niflumic acid]
MKN45
  ALDHbr: 1
PANC1
  ALDHbr: 0.848
SUM159
  ALDHbr: 0.78
T84
  ALDHbr: 0.895

## CC1(C)S[C@@H]2[C@H](NC(=O)[C@H](N)c3ccccc3)C(=O)N2[C@H]1C(=O)O [Ampicillin trihydrate]
MKN45
  ALDHbr: 0.953
PANC1
  ALDHbr: 0.845
SUM159
  ALDHbr: 1
T84
  ALDHbr: 0.79

## CN1CCN(CC(=O)N2c3ccccc3C(=O)Nc3cccnc32)CC1 [Pirenzepine dihydrochloride]
MKN45
  ALDHbr: 0.791
PANC1
  ALDHbr: 0.993
SUM159
  ALDHbr: 0.862
T84
  ALDHbr: 1.09

## CC1(C)S[C@@H]2[C@H](NC(=O)[C@H](NC(=O)N3CCNC3=O)c3ccccc3)C(=O)N2[C@H]1C(=O)O [Azlocillin sodium salt]
MKN45
  ALDHbr: 1.07
PANC1
  ALDHbr: 0.9
SUM159
  ALDHbr: 1.06
T84
  ALDHbr: 1.02

## C#C[C@]1(O)CC[C@H]2[C@@H]3CCC4=CCCC[C@@H]4[C@H]3CC[C@@]21C [Lynestrenol]
MKN45
  ALDHbr: 0.616
PANC1
  ALDHbr: 0.934
SUM159
  ALDHbr: 1.25
T84
  ALDHbr: 0.924

## NCc1ccccc1CC(=O)N[C@@H]1C(=O)N2C(C(=O)O)=C(CSc3nnnn3CC(=O)O)CS[C@H]12 [Ceforanide]
MKN45
  ALDHbr: 1.16
PANC1
  ALDHbr: 0.967
SUM159
  ALDHbr: 0.707
T84
  ALDHbr: 0.919

## CC(=O)Oc1ccccc1C(=O)Nc1ncc([N+](=O)[O-])s1 [Nitazoxanide]
MKN45
  ALDHbr: 0.73
PANC1
  ALDHbr: 1.05
SUM159
  ALDHbr: 1.03
T84
  ALDHbr: 0.729

## CCN1C(=O)NC(c2ccccc2)C1=O (configuration not stated) [Ethotoin]
MKN45
  ALDHbr: 0.977
PANC1
  ALDHbr: 0.855
SUM159
  ALDHbr: 1.17
T84
  ALDHbr: 0.907

## C[C@H]1COc2c(N3CCN(C)CC3)c(F)cc3c(=O)c(C(=O)O)cn1c23 [Levofloxacin]
MKN45
  ALDHbr: 0.956
PANC1
  ALDHbr: 0.941
SUM159
  ALDHbr: 0.984
T84
  ALDHbr: 0.866

## CN1[C@@H]2CC[C@H]1C[C@@H](OC(c1ccccc1)c1ccccc1)C2 [Benztropine mesylate]
MKN45
  ALDHbr: 0.768
PANC1
  ALDHbr: 1.06
SUM159
  ALDHbr: 1.03
T84
  ALDHbr: 0.907

## CC(C)(C)NC[C@H](O)COc1ccccc1C1CCCC1 [Penbutolol sulfate]
MKN45
  ALDHbr: 0.931
PANC1
  ALDHbr: 1.11
SUM159
  ALDHbr: 1.16
T84
  ALDHbr: 0.757

## Nc1ccc(S(=O)(=O)Nc2ccccn2)cc1 [Sulfapyridine]
MKN45
  ALDHbr: 0.957
PANC1
  ALDHbr: 1.05
SUM159
  ALDHbr: 1.07
T84
  ALDHbr: 1.03

## COc1cc(C(=O)NC2CCCNC2)cc(OC)c1OC (configuration not stated) [Troxipide]
MKN45
  ALDHbr: 0.972
PANC1
  ALDHbr: 0.975
SUM159
  ALDHbr: 0.985
T84
  ALDHbr: 1.21

## CC1CCc2cc(F)cc3c(=O)c(C(=O)O)cn1c23 (configuration not stated) [Flumequine]
MKN45
  ALDHbr: 1.02
PANC1
  ALDHbr: 0.883
SUM159
  ALDHbr: 0.97
T84
  ALDHbr: 1.09

## Oc1c(I)cc(Cl)c2cccnc12 [Clioquinol]
MKN45
  ALDHbr: 0.159
PANC1
  ALDHbr: 1.81
SUM159
  ALDHbr: 1.02
T84
  ALDHbr: 1.01

## COc1c(N2CCNC(C)C2)c(F)cc2c(=O)c(C(=O)O)cn(C3CC3)c12 (configuration not stated) [Gatifloxacin]
MKN45
  ALDHbr: 1.43
PANC1
  ALDHbr: 1.02
SUM159
  ALDHbr: 0.826
T84
  ALDHbr: 1.08

## C#C[C@]1(O)CC[C@H]2[C@@H]3[C@H](C)CC4=C(CCC(=O)C4)[C@H]3CC[C@@]21C [Tibolone]
MKN45
  ALDHbr: 0.799
PANC1
  ALDHbr: 0.939
SUM159
  ALDHbr: 1.04
T84
  ALDHbr: 0.965

## Cc1ccc(O)c([C@H](CCN(C(C)C)C(C)C)c2ccccc2)c1 [Tolterodine tartrate]
MKN45
  ALDHbr: 0.864
PANC1
  ALDHbr: 1.03
SUM159
  ALDHbr: 0.7
T84
  ALDHbr: 1.14

## CCCCOc1cc(C(=O)NCCN(CC)CC)c2ccccc2n1 [Dibucaine]
MKN45
  ALDHbr: 1.25
PANC1
  ALDHbr: 0.825
SUM159
  ALDHbr: 1.01
T84
  ALDHbr: 0.834

## CCN(Cc1ccncc1)C(=O)C(CO)c1ccccc1 (configuration not stated) [Tropicamide]
MKN45
  ALDHbr: 0.98
PANC1
  ALDHbr: 0.972
SUM159
  ALDHbr: 1.04
T84
  ALDHbr: 1.07

## Cc1cccn2c(=O)c(-c3nnn[nH]3)cnc12 [Pemirolast potassium]
MKN45
  ALDHbr: 1
PANC1
  ALDHbr: 0.925
SUM159
  ALDHbr: 1.18
T84
  ALDHbr: 0.773

## CN(C)CCCN1c2ccccc2CCc2ccccc21 [Imipramine hydrochloride]
MKN45
  ALDHbr: 1.04
PANC1
  ALDHbr: 1.39
SUM159
  ALDHbr: 0.939
T84
  ALDHbr: 0.86
